± gives the standard deviation. The list shows a part of the results, in another mix than the full data.
system: MIWI (PIWIL1) piRISC loaded with L1MC piRNA (30 nt); test: pre-steady-state target cleavage rate (min^-1); MIWI and MILI are mouse PIWI proteins and EfPiwi is from a freshwater sponge; tags in brackets are library labels; higher = faster piRNA-guided slicing of the target; conditions: guide: L1MC piRNA 5'p-UAACUAAAUACUAUGCAAGCUGUAGGUCCU; auxiliary factor: 500 nM mouse GTSF1
Summary of the method: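 In this Cleave-'n-Seq assay, uncleaved targets were sequenced and normalised to depth and to weakly complementary targets. They came from a transcribed, DNA-blocked target RNA library […] mixed with 1 nM active affinity-purified piRISC carrying one synthetic guide, with or without 500 nM GTSF1 partner protein, in HEPES–potassium acetate buffer at 33 °C for 0–8 or 0–960 min. After three trials were pooled and k3 was capped at 0.0001 min^-1, the pre-steady-state cleavage rate was obtained from a burst-and-steady-state fit.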
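Also: 1 nM active piRISC with 0.1 nM target library at 33 °C single turnover.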

Row | Sequence | pre-steady-state target cleavage rate
1 | UCCUCCUACAGCUUCCAUAGUAUUUAGUAA | 0.0822 ± 0.026
2 | UCCUGGAUGUCGAAGCAUAGUAUUUAGUUC [g2:g16:cont:t1C] | 0.00369 ± 0.0034
3 | UCCUGGAACAGCUUCCAUAGUAUUUUGUUA | 0.013 ± 0.0064
4 | UCCACCUACAGCUUGCAUAGUAUUAUGUAA | 0.117 ± 0.041
5 | UCCAGCUACAGCUUGCAUAGUAUUUUCAAA | 0.396 ± 0.052
6 | UCCUGGUACAGCUUGCUAAGUAUUUACAAA | 0.00749 ± 0.0048
7 | AGGACCUACAGCAAGCAUAGUAUUUUCAAA | 0.437 ± 0.082
8 | UCCACCUACAGCUACGAUAGUAUUUAGUAA | 0.0791 ± 0.022
9 | UCCUCCUACACGAUGCAUAGUAUUUAGAAA | 0.14 ± 0.024
10 | UCCUCCUACAGCUUGCAUACAUUUUAGUUA | 0.011 ± 0.0057
11 | UCCACCUACAGCUUGCAAUGUAUUUUCAAA | 0.0198 ± 0.0072
12 | UCCUGGUACAGCUUCCAUAGUAUUUAGUUA | 0.00964 ± 0.0067
13 | UGGACCUACAGCUUGCAUAGUAAAUACAAA | 0.0451 ± 0.014
14 | UGGACCUACAGCUUGCAUAGUAAAAAGAAA | 0.0744 ± 0.025
15 | UCGACCUACAGCUUGCAAUGUAUUUAGAAA | 0.086 ± 0.013
16 | UCCUCCUACAGCUUGCAUAGUAUAUACAAA | 0.267 ± 0.044
17 | UCCACCUACAGCUUGGUAAGUAUUUAGUUA | 0.0619 ± 0.011
18 | UCCUGCUAGUGCUUGCAUAGUAUUUAGAAA | 0.0199 ± 0.0065

Row | Sequence | pre-steady-state target cleavage rate
19 | AGGACCUACAGCUUGCAUAUGUAUUUAGUUA | 0.271 ± 0.11
20 | UCCUGGAUGUCCUUGCAUAGAAUUUAGUUA | 0.00903 ± 0.0042
21 | UCCUCCUACAGCUUGCUAAGUAUUUAGAAA | 0.0576 ± 0.017
22 | UCCUGGAUGUCGAACGUAUGUUUUUAGAUA | < 0.0001
23 | UCCACCUAGUCCUUGCAUAGUAUUUUCAAA | 0.0843 ± 0.021
24 | UCCUGGAUGUCCAUGCAUAGUAAUUAGUUA | 0.00537 ± 0.0047
25 | UCCUGGAUGUCGUUCAUAGUAUUUAGUUA | 0.00465 ± 0.0037
26 | UCCUGGUACAGCUUGGAUAGUAUUUAGAAA | 0.0279 ± 0.011
27 | UCCUGGUACAGCUUGCUAAGUAUUUAGAAA | 0.0221 ± 0.0088
28 | UCGACCUACAGCUUGCACUAGUAUUUAGUUA | 0.254 ± 0.081
29 | UCCUGGUACAGCUUGCUAAGUAUUUUCAAA | 0.00472 ± 0.0045
30 | UGGACCUACAGGUUGCAUAGUAUUUUCAAA | 0.123 ± 0.019
31 | UCCUGGAACACCUUGCAUAGUAUUUACAAA | 0.147 ± 0.047
32 | UCCUGGAUGACCUUGCAUAGUAUUUAGAAA | 0.0101 ± 0.0061
33 | UCCUGGAUGUCCUUGCAAAGUAUUUAGUAA | 0.00951 ± 0.0044
34 | AGGACCUACAGCUUGCAUUGUAUUUACAAA | 0.128 ± 0.028
35 | UCCACCUACUCGUUGCAUAGUAUUUAGAAA | 0.139 ± 0.021
36 | UCCUGGAUCUGCUUCCAUAGUAUUUAGUUA | 0.0123 ± 0.0024
